# Experimental data: PMC4336329 (PLoS ONE, 2015)
# The campaign covered roughly 310,000 compounds. About 14,000 (4.5%) showed an effect of 50% or more. Effects have a minus sign here. The list shows a part of the results.
# Target: human ether-à-go-go-related gene (hERG) potassium channel (human, UniProt Q12809)
# Assay: primary screen, population patch clamp on CHO cells stably expressing hERG
# 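Also: peak tail current of the secondary pulse compared with the same well before compound.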
# human ether-à-go-go-related gene (hERG) potassium channel, sequence (Q12809 whole entry, looked up): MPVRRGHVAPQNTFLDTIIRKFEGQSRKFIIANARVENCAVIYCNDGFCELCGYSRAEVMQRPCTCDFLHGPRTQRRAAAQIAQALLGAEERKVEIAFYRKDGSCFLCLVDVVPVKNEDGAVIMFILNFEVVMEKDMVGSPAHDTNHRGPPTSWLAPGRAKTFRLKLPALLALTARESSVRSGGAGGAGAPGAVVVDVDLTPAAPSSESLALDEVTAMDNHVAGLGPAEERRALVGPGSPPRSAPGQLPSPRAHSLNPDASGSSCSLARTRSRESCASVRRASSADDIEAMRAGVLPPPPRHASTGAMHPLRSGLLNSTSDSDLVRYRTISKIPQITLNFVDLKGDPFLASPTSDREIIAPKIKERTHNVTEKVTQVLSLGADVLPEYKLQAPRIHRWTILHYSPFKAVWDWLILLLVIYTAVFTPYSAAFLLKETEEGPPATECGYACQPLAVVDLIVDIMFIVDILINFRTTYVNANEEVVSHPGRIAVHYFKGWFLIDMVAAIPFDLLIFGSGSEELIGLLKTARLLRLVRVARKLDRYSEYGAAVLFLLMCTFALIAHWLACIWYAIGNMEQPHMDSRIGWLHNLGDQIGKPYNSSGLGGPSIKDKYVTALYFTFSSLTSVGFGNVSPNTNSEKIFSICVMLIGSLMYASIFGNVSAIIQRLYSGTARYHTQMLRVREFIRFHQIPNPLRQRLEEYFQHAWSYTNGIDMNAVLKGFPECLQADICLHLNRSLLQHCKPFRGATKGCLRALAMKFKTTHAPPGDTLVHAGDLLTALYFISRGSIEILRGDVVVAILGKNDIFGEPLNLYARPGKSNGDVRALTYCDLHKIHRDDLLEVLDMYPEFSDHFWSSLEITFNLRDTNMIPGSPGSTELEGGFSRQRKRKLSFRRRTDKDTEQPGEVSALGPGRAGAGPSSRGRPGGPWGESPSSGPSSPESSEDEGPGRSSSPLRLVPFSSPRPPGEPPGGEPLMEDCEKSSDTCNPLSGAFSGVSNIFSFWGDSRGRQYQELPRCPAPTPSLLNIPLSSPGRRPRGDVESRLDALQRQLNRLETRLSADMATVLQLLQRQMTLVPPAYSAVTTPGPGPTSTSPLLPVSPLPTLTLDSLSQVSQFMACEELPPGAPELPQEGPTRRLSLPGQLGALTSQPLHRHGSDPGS
row,Structure (SMILES),"hERG current change (%, negative = inhibition) at 10uM [%]"
1,CC(=O)N1CCN(Cc2nc3cc(NC(=O)NC4CCCCC4)ccc3n2C)CC1,14.3
2,Cc1cccc(-n2c(=S)[nH]c3nc4c(cc3c2=O)COC(C)(C)C4)c1,16.9
3,O=C(NCC1CCCO1)C(c1cccnc1)N(C(=O)Cc1cccs1)c1ccccc1 (stereo not drawn),-1.28
4,CCC(C)(C)n1nnnc1C(c1cc2cc(C)ccc2[nH]c1=O)N1CCCC1 (stereo not drawn),-9.97
5,Cc1ccc(NCc2ccc(Cl)nc2)c(NCc2ccc(Cl)nc2)c1,-47.6
6,CCOc1ccc(/C=C/C(=O)OCC(=O)NCCc2ccc(OCC)c(OCC)c2)cc1OC,-14.7
7,CCOC(=O)C1(CCOC)CCN(C(=O)c2sccc2C)CC1,9.22
8,COc1cc(CNc2ncn[nH]2)cc(Br)c1OC,9.68
9,O=[N+]([O-])c1ccc(N2CCN(c3ccccc3O)CC2)c(Cl)c1,9.9
10,CC(C)(C)c1ccc(C(=O)NCC(=O)OCCN2C(=O)c3ccccc3C2=O)cc1,-16.3
11,O=C(CN(c1cccc(Cl)c1)S(=O)(=O)c1ccc(Cl)cc1)NCc1ccccn1,-53.1
12,CC(C)(C)C(=O)Nc1cc(S(=O)(=O)Nc2ccc(Cl)cc2)ccc1Cl,-4.45
13,CC(=O)CCC(=O)N1CCCC(N2CCN(c3cccc(Cl)c3)CC2)C1 (stereo not drawn),-2.63
14,CC(C)(C)NC(=O)NC(=O)CSc1ncc(C(F)(F)F)cc1Cl,5.68
15,COc1ccc(NS(=O)(=O)c2cn(C)nc2C)cc1,-2.27
16,COc1ccccc1CNC(=O)CCC1N=C2c3ccccc3N=C(SCC(=O)NCC3CCCO3)N2C1=O (stereo not drawn),-1.25
17,CC(=O)OCCCCCCCCCCC[N+]1(C)CCCCC1.[I-],-7.49
18,O=C1CC(c2cccs2)Cc2nc(NC(=O)C3CC3)ncc21 (stereo not drawn),-10.3
19,Cc1ccc(S(=O)(=O)N2CCCC2C(=O)NCCc2ccccc2)cc1 (stereo not drawn),-4.46
20,CC(C)NC(=O)COC(=O)Cn1[nH]c(=O)c2ccccc2c1=O,12.2
21,Cc1cc(NC(=O)CCc2ccc(-c3ccccc3)o2)no1,8.58
22,COc1cccc(C2c3[nH]c4ccccc4c3CCN2Cc2cnn(C)c2)c1 (stereo not drawn),-69.6

row,Structure (SMILES),"hERG current change (%, negative = inhibition) at 10uM [%]"
1,O=S(=O)(Nc1ncccn1)c1ccc(NC(=S)NCCc2ccccc2)cc1,-2.45
2,CN(NC1OC(=O)c2ccccc21)c1ncc(C(F)(F)F)cc1Cl (stereo not drawn),12.9
3,COc1cc(C(=O)Nc2nccs2)cc(OC)c1OC,3.55
4,CCOC(=O)CCNC(=O)N1CCC(CCOc2ccccc2)(C(=O)OCC)CC1,-16.1
5,CCc1nnc(NC(=O)CSc2nnc(CNc3cccc(Cl)c3)n2CC)s1,-59.6
6,O=C(NCc1ccc(F)cc1)c1ccc(CS(=O)Cc2ccccc2Cl)o1 (stereo not drawn),-37.3
7,COc1ccc(OC)c(/C=C/C(=O)OCC(=O)NC2CCCCCCC2)c1,-4.68
8,CCNC(=S)N/N=C/c1ccco1,3.39
9,COCCn1c(=O)[nH]c2cc(C(=O)N3CCN(c4cccc(C)c4C)CC3)ccc2c1=O,13.2
10,CCn1cc(/C=C/c2cc[n+](C)cc2)c2ccccc21.[I-],-56.1
11,CC(C)(C)SCCNC(=O)COc1ccc(Cl)cc1,-12.2
12,COc1cccc(-c2nnc(SCC(=O)Nc3cc(C)on3)n2C)c1,1.12
13,O=C(Nc1ccccc1)NC1CCCCC1,7.36
14,CCOC(=O)C1CCN(C(=O)C2CC(=O)N(c3ccc4c(c3)OCCO4)C2)CC1 (stereo not drawn),-3.89
15,COc1cccc(NC(=S)NCCC(c2ccccc2)c2ccccc2)c1,2.82
16,CC(C1CC2CCC1C2)n1c(-c2ccco2)n[nH]c1=S (stereo not drawn),-15.2
17,N#Cc1c(SCC(=O)O)nc(N2CCCCC2)c2c1CCCC2,7.31
18,Cn1c(CCN2CCN(c3ccccn3)CC2)nc2cc(NC(=O)COc3ccc(Cl)cc3)ccc21,-22.7
19,CN1C(=O)N(C)C2(c3ccccc3)Nn3c(s/c(=C/c4ccccc4)c3=O)=NC12c1ccccc1 (stereo not drawn),27.1
20,Cc1nn(C)c(C)c1NC(=O)CCl.Cl,10.5
21,CC(C)Cc1cc(-c2ccco2)c(C#N)c(N)n1,1.51
22,CC1(C)CC(=O)C=C(NCc2ccccc2)C1,-4.83

row,Structure (SMILES),"hERG current change (%, negative = inhibition) at 10uM [%]"
1,O=C1N/C(=N/N=C/c2ccco2)SC1Cc1ccccc1 (stereo not drawn),0.361
2,Cc1cc(C)c(C#N)c(SCC(=O)NC(C)(C)C)n1,-19.7
3,O=C(CCCN1C(=O)/C(=C\c2ccccc2)SC1=S)Nc1ccc(O)cc1,1.61
4,CC(C)[C@H](NC(N)=O)C(=O)Nc1ccc2c(c1)CCC2,-2.49
5,O=C(COc1ccc(S(=O)(=O)N2CCCC2)cc1Cl)N1CCN(c2ccccc2)CC1,-15.5
6,O=C(CSc1ccc(F)cc1)Nc1ccc(N2CCOCC2)c(Cl)c1,-20.3
7,COc1ccc(CCN(C)C(=O)c2ccc(OCC(=O)N3CCOCC3)c(OC)c2)cc1OC,24.1
8,CN(C)C(=O)c1cc(C(=O)c2c(F)cccc2F)c[nH]1,14.9
9,COc1ccc(CCNC2CC(=O)N(CCc3ccc(OC)c(OC)c3)C2=O)cc1 (stereo not drawn),2.18
10,Cc1cc(O)c(NC(=O)c2ccco2)cc1C,1.74
11,Cc1nc(Cl)c(C(=O)NCc2ccccc2)c(C)c1Cl,7.85
12,COc1ccc(Nc2nc(C)cc(-c3cc(-c4ccccc4)on3)n2)cc1,9.62
13,CN(C(=O)c1ccc(NC(=O)Cc2ccccc2)cc1)c1ccccc1,1.32
14,COc1ccccc1N1CCN(C(=O)/C=C/c2cccc([N+](=O)[O-])c2)CC1,-16.1
15,COc1ccccc1OCC(=O)Nc1ccc(O)cc1C(=O)O,0.029
16,CC1(C(=O)NCC2CC2)C=CC2(CCCCC2)N1C(=O)c1ccccc1 (stereo not drawn),-14.3
17,COc1ccc(-c2c(-c3cc(OC)cc(OC)c3)n(C)c3ccc(-c4cccc5[nH]ccc45)cc23)cc1,16.7
18,CC1Cc2ccccc2N1C(=O)COC(=O)CSc1ccc(F)cc1 (stereo not drawn),-10.1
19,CCOc1ccccc1NC(=O)c1ccc([N+](=O)[O-])cc1,6.23
20,Cc1oc2c(c(C)cc3oc(=O)c(CC(=O)NCC(=O)NCC(=O)O)c(C)c32)c1C,10.7
21,CC(C)CNC(=S)NNC(=O)c1nn(C)cc1Cl,-7.21
22,O=C(c1cc(F)ccc1F)C1CCCN(C(=O)c2ccc(F)cc2Cl)C1 (stereo not drawn),-23.3

row,Structure (SMILES),"hERG current change (%, negative = inhibition) at 10uM [%]"
1,CCC1Nc2ncnc(N3CCCCC3)c2N(Cc2ccc(Br)cc2)C1=O.O=C(O)C(F)(F)F (stereo not drawn),-47
2,O=C(COC(=O)Cc1ccsc1)Nc1ccc(S(=O)(=O)N2CCOCC2)cc1,1.21
3,Clc1ccc(-n2nnnc2-c2cnc3ccc(Cl)cc3c2-c2ccccc2)cc1,5.46
4,COc1ccc(/C=C\c2onc(C)c2S(=O)(=O)N2CCC(C(=O)NCc3ccco3)CC2)cc1,-4.91
5,CN(c1ccccc1)S(=O)(=O)c1cccc(NC(=O)CN2CCCc3ccccc32)c1,-2.81
6,Cc1c(NC2=CC(=O)CC(C)(C)C2)c(=O)n(-c2ccccc2)n1C,9.39
7,CCn1c(=O)c(C(=O)NCCCO)c(O)c2ccccc21,10.1
8,Cc1cc(C)n(CCNC(=O)c2ccco2)n1,11.9
9,FC(F)(F)c1cc(C(F)(F)F)c2ccc(N3CCN(c4ccccc4)CC3)nc2n1,3.36
10,O=c1c2[nH]c3ccc(Br)cc3c2ncn1CCCn1ccnc1,-64.4
11,O=C(NCc1ccc(F)cc1)c1ccc2c(c1)S(=O)(=O)c1ccccc1C2=O,-0.602
12,O=C(NC1CC2CCCC(C1)N2C(=O)NC1CCCCC1)c1ccccc1 (stereo not drawn),-0.519
13,C=CCNC(=O)c1ccc(-c2nc3ccccc3nc2-c2ccccc2)cc1,-38.3
14,Cc1cc(C(=O)COC(=O)CCc2nc3ccccc3s2)c(C)n1C,2.19
15,COc1ccccc1CCC(=O)OCC(=O)Nc1cc(S(=O)(=O)N2CCOCC2)ccc1C,-44.3
16,O=C(Nc1cccc(S(=O)(=O)N2CCCCC2)c1)c1cc2ccccc2o1,-11.1
17,COc1ccc(CN2CC(=O)N3[C@H]4c5ccc(OC)cc5OC[C@@H]4[C@H](c4ccccc4)[C@]3(C)C2=O)cc1,8.67
18,COc1ccc(CCNC(=O)CCN2C(=O)c3cccc4cccc(c34)C2=O)cc1OC,-6.69
19,O=c1c2ccccc2ncn1C1CCCCC1,-19.4
20,Cc1ccc(NS(=O)(=O)c2cc(-c3n[nH]c(=O)c4ccccc34)ccc2C)cc1,9.59
21,CC(=O)N1N=C(c2ccccc2)CC1c1cccs1 (stereo not drawn),0.963
